# The whole screen tested about 5,400 compounds, of which about 190 (3.5%) showed an effect of 50% or more. The list shows a part of the results.
# Test system: Vero-E6
# Assay: primary screen, phospholipidosis by LipidTOX staining; higher = more effect of the substance
# Details: 10 µM
# Outline: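 Single-concentration screen at 10 μM, with DMSO 0.1 v/v % and amiodarone 10 μM as controls. Read-out is LipidTOX Red phospholipid staining, which tolerates aldehyde fixation, in Vero-E6 cells.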
row,Structure (SMILES),result_ITMP
1,Cc1nc(=O)c2c([nH]1)CCSC2,-2.05%
2,Cc1c(N)c(=O)n(-c2ccccc2)n1C,-5.95%
3,O=C(O)c1ccc[n+]([O-])c1,-11.7%
4,Nc1nc2c(cnn2CCc2ccccc2)c2nc(-c3ccco3)nn12,-1.94%
5,CC(=O)SCCC(=O)N1C(C)CCCC1C(=O)O (centres unmarked),-5.88%
6,CCC(C)CC(C)CCCCCCCCC(=O)N[C@H]1C[C@@H](O)[C@@H](NCCN)NC(=O)[C@@H]2[C@@H](O)CCN2C(=O)[C@H]([C@H](O)CCN)NC(=O)[C@H]([C@@H](O)[C@H](O)c2ccc(O)cc2)NC(=O)[C@@H]2C[C@@H](O)CN2C(=O)[C@H]([C@@H](C)O)NC1=O (some centres unmarked),6.26%
7,CCCCOc1c(C(=O)c2c(F)cc(C)cc2F)cnc2[nH]ncc12,7.58%
8,CC1=C(/C=C/C(C)=C/C=C/C(C)=C\C(=O)O)C(C)(C)CCC1 [R4A_0003961_001 / SPE_K76723084],-4.14%
9,CCC1(c2ccccc2)C(=O)N(COC)C(=O)N(COC)C1=O,-0.57%
10,CNC(=O)c1ccc2c(c1)S(=O)(=O)c1ccccc1C2=O,-1.39%
11,O=C(CCc1ccncc1)NNC(=O)N1Cc2ccccc2Oc2ccc(Cl)cc21,-1.3%
12,CCOC(=O)Nc1nc2ccccc2[nH]1,2.26%
13,NC(C(=O)O)c1nnn[nH]1 (racemic),-4.82%
14,CN1CCN(c2ccc(/C=C(\C#N)c3ccccc3Br)cc2)CC1,39.7%
15,CCOC(=O)/C=C(C)/C=C/C=C(C)/C=C/c1c(C)cc(OC)c(C)c1C,-0.31%
16,CC1(C)Cc2c(-c3ccccc3)c(-c3ccc(Cl)cc3)c(CC(=O)O)n2C1,1.05%
17,CN1CCN(c2ccc(-c3cccc(CN4CCOCC4)c3)cc2NC(=O)c2c[nH]c(=O)cc2C(F)(F)F)CC1,-0.45%
18,CC(C)(C)c1cc(NC(=O)Nc2ccc(-c3cn4c(n3)sc3cc(OCCN5CCOCC5)ccc34)cc2)no1,0.02%
19,NCCC(O)(P(=O)([O-])O)P(=O)([O-])O,-8.19%
20,CC(CNC1CCCCC1)OC(=O)c1ccccc1 (centres unmarked),-7.2%
21,O=C(O)c1cccc(-c2noc(-c3ccccc3F)n2)c1,-2.4%
22,Nc1ccc(S(=O)(=O)Nc2nccs2)cc1,-3.89%

row,Structure (SMILES),result_ITMP
1,CC(C)(C)c1ccc(-c2nc3cccc(N4CCN(Cc5ccc6nccnc6c5)CC4)c3[nH]2)cc1,5.05%
2,O=C1C(Cl)=C(N2CCOCC2)C(=O)N1c1ccc(Cl)c(Cl)c1,-4.29%
3,COc1ccc(C(=O)Nc2c(Cl)cncc2Cl)cc1OC1CCCC1,-2.57%
4,Cc1ccc(NC(=O)CCCCCC(=O)Nc2ccccc2N)cc1,-1.6%
5,Cc1ccc(-c2cc(C(F)(F)F)nn2-c2ccc(S(N)(=O)=O)cc2)cc1,-4.02%
6,CCCOC(=O)c1ccc(O)cc1,-6.59%
7,Nc1nc(NC[C@H]2CC[C@H](CNS(=O)(=O)c3cccc4ccccc34)CC2)nc2ccccc12,41.1%
8,NCC(CC(=O)O)c1ccc(Cl)cc1 (racemic),2.22%
9,CCOC(=O)C1=C(C)NC(=S)NC1c1cccc(O)c1 (centres unmarked),-1.92%
10,COC1[C@@H](O)[C@@H](O)C(O)[C@H](O)[C@H]1O (some centres unmarked),1.78%
11,CC[C@H]1OC(=O)[C@H](C)[C@@H](O[C@H]2C[C@@](C)(OC)[C@@H](O)[C@H](C)O2)[C@H](C)[C@@H](O[C@@H]2O[C@H](C)C[C@H](N(C)C)[C@H]2O)[C@](C)(O)C[C@@H](C)CN(C)[C@H](C)[C@@H](O)[C@]1(C)O,21.4%
12,Nc1nc(OCC2CCCCC2)c2nc[nH]c2n1,-3.64%
13,CC(C)NCC(O)c1ccc([N+](=O)[O-])cc1 (centres unmarked),6.25%
14,CN1CCc2nc(C(=O)N[C@@H]3C[C@@H](C(=O)N(C)C)CC[C@@H]3NC(=O)C(=O)Nc3ccc(Cl)cn3)sc2C1,-7.24%
15,OCCn1cc(-c2ccc3c(c2)CC/C3=N\O)c(-c2ccncc2)n1,-1.63%
16,CN[C@H]1CC[C@@H](c2ccc(Cl)c(Cl)c2)c2ccccc21,56.1%
17,COCCNC(=O)COc1ccc(OCCNC[C@H](O)COc2ccccc2)cc1,-1.98%
18,Cn1cc(-c2cnc3ccc4ccc(CS(=O)(=O)NCc5ccccn5)cc4c(=O)c3c2)cn1,-1.67%
19,NC[C@H](O)c1ccc(O)c(O)c1,-1.45%
20,Cc1sc2c(c1C)C(c1ccc(Cl)cc1)=N[C@@H](CC(N)=O)c1nnc(C)n1-2,1.35%
21,CCc1cnc(N2CCC(c3nc(COc4ccc(-n5cnnn5)cc4)cs3)CC2)nc1,-7.99%
22,CC(C)(C)C(=O)OCOC(=O)C1N2C(=O)CC2S(=O)(=O)C1(C)C (centres unmarked),3.85%
